Consider 44 compounds from PMC4336329 (PLoS ONE, 2015).

Each structure is given as a SMILES string. In all, about 310,000 compounds went through this assay and about 2,200 (0.71%) showed an effect of 50% or more. Effects have a minus sign here. Some of the results follow.

Sequence of human ether-à-go-go-related gene (hERG) potassium channel (Q12809 whole entry, looked up): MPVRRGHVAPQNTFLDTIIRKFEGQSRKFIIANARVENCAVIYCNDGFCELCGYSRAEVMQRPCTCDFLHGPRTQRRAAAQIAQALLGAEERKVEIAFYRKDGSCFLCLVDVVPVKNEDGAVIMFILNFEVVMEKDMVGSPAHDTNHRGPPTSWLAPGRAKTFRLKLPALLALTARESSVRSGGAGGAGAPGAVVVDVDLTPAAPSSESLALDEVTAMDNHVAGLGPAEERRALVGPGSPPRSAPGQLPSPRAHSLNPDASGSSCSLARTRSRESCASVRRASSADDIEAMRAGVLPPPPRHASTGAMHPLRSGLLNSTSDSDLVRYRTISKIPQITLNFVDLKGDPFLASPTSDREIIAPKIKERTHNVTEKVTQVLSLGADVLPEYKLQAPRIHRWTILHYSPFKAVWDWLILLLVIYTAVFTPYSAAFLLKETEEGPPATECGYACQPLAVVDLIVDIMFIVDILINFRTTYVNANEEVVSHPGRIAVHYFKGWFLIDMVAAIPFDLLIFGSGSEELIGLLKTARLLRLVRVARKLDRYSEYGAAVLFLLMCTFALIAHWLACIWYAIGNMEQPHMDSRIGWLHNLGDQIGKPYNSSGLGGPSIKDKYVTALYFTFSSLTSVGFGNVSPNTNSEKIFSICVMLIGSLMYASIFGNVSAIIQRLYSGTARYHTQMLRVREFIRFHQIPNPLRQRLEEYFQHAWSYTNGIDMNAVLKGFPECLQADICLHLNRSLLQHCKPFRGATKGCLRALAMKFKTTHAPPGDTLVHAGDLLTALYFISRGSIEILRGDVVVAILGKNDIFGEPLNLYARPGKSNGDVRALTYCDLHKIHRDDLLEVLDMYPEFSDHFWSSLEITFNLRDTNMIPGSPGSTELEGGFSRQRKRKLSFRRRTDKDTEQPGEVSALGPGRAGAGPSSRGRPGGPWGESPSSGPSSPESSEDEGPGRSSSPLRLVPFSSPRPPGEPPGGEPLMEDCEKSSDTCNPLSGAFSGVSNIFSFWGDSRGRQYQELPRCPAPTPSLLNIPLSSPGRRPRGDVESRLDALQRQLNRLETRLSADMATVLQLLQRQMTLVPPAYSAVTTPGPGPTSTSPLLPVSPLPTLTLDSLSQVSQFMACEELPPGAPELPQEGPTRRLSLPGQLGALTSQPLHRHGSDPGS

This experiment has as its target human ether-à-go-go-related gene (hERG) potassium channel (human, UniProt Q12809). As to the kind of experiment: primary screen, population patch clamp on CHO cells stably expressing hERG.
As to `CN(Cc1ccccc1)C(=O)c1cc2ccccc2o1`, the “hERG current change (%, negative = inhibition) at 1uM” value is given as 7.48%.

Take `O=C(Cc1cccs1)Nc1nnc(SCc2ccc(F)cc2)s1`: the “hERG current change (%, negative = inhibition) at 1uM” value was 14.9%.

In the case of `O=C(NNC1CC(=O)N(c2ccc(Cl)cc2)C1=O)c1ccccc1Cl` (centres unmarked), the “hERG current change (%, negative = inhibition) at 1uM” value is 13.8%.

Consider `CCOC(=O)c1ccc(NC(=O)CSC(=S)N2CCOCC2)cc1`, for which the “hERG current change (%, negative = inhibition) at 1uM” value is given as -8.55%.

In the case of `O=C(CCC(=O)N1CCSc2ccccc21)NC1CCCCC1`, the “hERG current change (%, negative = inhibition) at 1uM” value is recorded as 2.59%.

Regarding `COc1ccc(C(=O)N2CCC(n3nnc4cc(F)ccc43)CC2)cc1OC`, the “hERG current change (%, negative = inhibition) at 1uM” value is on record as -20.5%.

In the case of `O=C(NCCOc1ccccc1Cl)C(=O)Nc1ccccc1`, the “hERG current change (%, negative = inhibition) at 1uM” value is on record as 3.74%.

For `Cc1ccc(S(=O)(=O)N(Cc2cc3cccc(C)c3[nH]c2=O)c2ccccc2)cc1`, the “hERG current change (%, negative = inhibition) at 1uM” value is 11.6%.

`CC(C)C(C)NC(=O)COc1ccc(OCc2ccccc2)cc1` (centres unmarked): the “hERG current change (%, negative = inhibition) at 1uM” value was found to be 4.32%.

For the compound `C=CCn1c(C(C)NC(=O)COC)nc2ccccc21` (centres unmarked), the “hERG current change (%, negative = inhibition) at 1uM” value is recorded as 16.7%.

Regarding `O=C(c1cc(-c2ccc(O)cc2)on1)N1CCc2ccccc2C1`, the “hERG current change (%, negative = inhibition) at 1uM” value was found to be 3.87%.

As for `CCOCCCNCC(=O)NC1(C)C2CCC(C2)C1(C)C.Cl` (centres unmarked), the “hERG current change (%, negative = inhibition) at 1uM” value was determined as 8.93%.

`Cc1cc(=O)n2c(C(=O)Nc3ccc(C)c(C)c3)c(C(=O)Nc3ccccc3)sc2n1`: the “hERG current change (%, negative = inhibition) at 1uM” value amounted to 11.2%.

In the case of `CC(C)(O)c1[nH]c2ccc(C(F)(F)F)cc2c1C(C)(C)O`, the “hERG current change (%, negative = inhibition) at 1uM” value amounted to 14.6%.

For the compound `CCN(C(=O)Cn1c(=O)oc2cc(S(=O)(=O)N3CCCC3)ccc21)c1ccc(OC)cc1`, the “hERG current change (%, negative = inhibition) at 1uM” value turned out to be 6.02%.

Regarding `CC(C)CC(=O)Nc1ccc(-c2nc3ccccc3c(=O)o2)cc1`, the “hERG current change (%, negative = inhibition) at 1uM” value turned out to be 0.334%.

Turning to `O=C(O)c1ccc(C2SCC(=O)N2Cc2ccccc2)cc1` (centres unmarked), the “hERG current change (%, negative = inhibition) at 1uM” value stood at 1.98%.

In the case of `COc1ccc(C(=O)NNC(=S)NC(=O)c2ccc(F)cc2)cc1Br`, the “hERG current change (%, negative = inhibition) at 1uM” value is recorded as 21.5%.

For `CCOC(=O)Nc1ccc(S(=O)(=O)NCc2ccccc2)cc1`, the “hERG current change (%, negative = inhibition) at 1uM” value is given as 10.2%.

With `Cc1ccc(NC(=O)c2c([N+](=O)[O-])c(C(C)(C)C)nn2C)c(C)c1`, the “hERG current change (%, negative = inhibition) at 1uM” value came to 21.7%.

With `CC(=O)N1CCc2cc3nc(C)cc(C)c3cc21`, the “hERG current change (%, negative = inhibition) at 1uM” value was -18.2%.

Turning to `CCS(=O)(=O)c1ccc(O)c(NC(=O)/C=C/c2ccc(Cl)cc2)c1`, the “hERG current change (%, negative = inhibition) at 1uM” value is listed as -0.0214%.

With `O=C(/C=C/c1ccccc1)c1c[nH]c2ccccc12`, the “hERG current change (%, negative = inhibition) at 1uM” value is 3.22%.

On to `CC(=O)NS(=O)(=O)c1ccc(NC(=O)C2C3C=CC(C3)C2C(=O)O)cc1` (centres unmarked), for which the “hERG current change (%, negative = inhibition) at 1uM” value is 7.33%.

Take `Cc1nc(NC(CC(C)C)C(=O)O)c2nc(C)oc2n1` (centres unmarked): the “hERG current change (%, negative = inhibition) at 1uM” value is on record as 0.536%.

As for `COc1cc(-c2nc(CCNC(=O)c3ccco3)cs2)cc(OC)c1OC`, the “hERG current change (%, negative = inhibition) at 1uM” value is on record as 2.35%.

In the case of `O=C(OCc1cccc(F)c1)c1ccc2c(=O)n3c(nc2c1)CCC3`, the “hERG current change (%, negative = inhibition) at 1uM” value is listed as 8.26%.

Turning to `Cc1ccc(C(C#N)c2ccc(Cl)nn2)cc1` (centres unmarked), the “hERG current change (%, negative = inhibition) at 1uM” value came to 4.47%.

Turning to `COc1ccc(C(CNc2nc(-c3cccnc3)nc3ccccc23)N(C)C)cc1` (centres unmarked), the “hERG current change (%, negative = inhibition) at 1uM” value is on record as -3.99%.

As to `O=C1OC(Cc2ccccn2)C(O)=C1C1=NCCCCN1` (centres unmarked), the “hERG current change (%, negative = inhibition) at 1uM” value is on record as -3.6%.

For the compound `CCc1nnc(NC(=O)CCC(=O)N2CCN(Cc3ccc(OC)c(F)c3)CC2)s1`, the “hERG current change (%, negative = inhibition) at 1uM” value worked out at 18.2%.

For `O=C(O)C(c1ccccc1)c1ccccc1`, the “hERG current change (%, negative = inhibition) at 1uM” value worked out at 12.3%.

Turning to `CCOC(=O)C1(Cc2cccc(OC)c2)CCN(Cc2cccnc2)CC1`, the “hERG current change (%, negative = inhibition) at 1uM” value came to 11.5%.

For `C/C(=N\NC(=S)NCc1ccccc1)c1ccc2c(c1)OCCO2`, the “hERG current change (%, negative = inhibition) at 1uM” value is -6.28%.

In the case of `O=C(N/N=C/c1ccncc1)c1cc2ccccc2cc1O`, the “hERG current change (%, negative = inhibition) at 1uM” value is reported as 4.63%.

Consider `COc1ccc(C(=O)Nn2c(SCc3ccc([N+](=O)[O-])cc3)nc3ccccc3c2=O)cc1`, for which the “hERG current change (%, negative = inhibition) at 1uM” value amounted to 7.24%.

Take `Cc1cccc(C)c1NC(=O)CSc1nnc(NC(=O)C2CC2)s1`: the “hERG current change (%, negative = inhibition) at 1uM” value came out at 20.8%.

Consider `Cc1nc2c(c(=O)n1CCC(C)C)c1nc3ccccc3nc1n2Cc1ccc2c(c1)OCO2`, for which the “hERG current change (%, negative = inhibition) at 1uM” value was determined as 2.46%.

Turning to `Br.CCCCCCCCCn1ccc(=N)cc1`, the “hERG current change (%, negative = inhibition) at 1uM” value is given as -20.1%.

Consider `CSc1ccc(-c2nnn(Cc3ccc(C)cc3)n2)cc1`, for which the “hERG current change (%, negative = inhibition) at 1uM” value is given as 16.5%.

With `COc1ccc(C(=O)COC(=O)[C@H](C)Nc2ccc(C(F)(F)F)cc2[N+](=O)[O-])c(OC)c1`, the “hERG current change (%, negative = inhibition) at 1uM” value is reported as 2.67%.

In the case of `C=CCN1C(=O)/C(=C\c2cc(Br)c(OCc3ccccn3)c(OC)c2)SC1=S`, the “hERG current change (%, negative = inhibition) at 1uM” value is on record as 11.6%.

With `c1ccc2ccccc2c1`, the “hERG current change (%, negative = inhibition) at 1uM” value turned out to be 16%.

As to `Cc1ccc(NC(=O)c2ccc(F)cc2)nc1`, the “hERG current change (%, negative = inhibition) at 1uM” value is recorded as 13.4%.
